# Data published in the supplement of paper PMC8728848.
# The other results are listed elsewhere or left out.
# B1: Epa1-NP-mutant-E227G (Candida glabrata), Q6VBJ0 (protein)
# chain: MILNPALFLNKCVCIYTTLILLLLTNGGYATSSNDISLASKDPTTFPLGCSPDITTPKKGLSMELYSYDFRKKGSYPCWDAAYLDPNYPRTGYKSHRLLAKVDGVTGNINFYYHATKGCTPQLGHLPASYNYPKPLTMTNFTMLLYGYFRPKVTGFHTFTISADDLLFVNFGAGNAFDCCRRDSSADHFGNYQAYAIWGSKTAKDELTVHLDAGVYYPIRLFYNNRGYDGALSFTFKTESNENTVSDFSEYFFSLDDTEEGCPGLISYDSSCASVKTSKIIGIDYHTETPNENLVPITKTIYHLGIPCTGTTTTPLCGSGFYDPLANKCVTINTSSTSSVTKTTSHTTSKEVSFHSSISSQKTLIPKSIPSPYGPIKSQSIPTEMETSSEISSSEYAFSDVISTPSHSPYTKKHSSLNSSSYTSTVIHSLTSYSISQGIFSTSLSEQNITSKSSTDKFSTATSMSNNITQSSIIISQFSTNNENYTTTSMHTSSDKISTETLNNSISTTTSILFSNSSTILKNNTTIISSDKDTHYHPVNPTIVCSTNKTEIICASITQPSISNSNNHWSSSVLKFNSTTVRSTLPSSAGSNETSINVPFSSSTESNTSTSSTSTSNSKMVRSTLPSSAGSNETSISVPFSSSTESNTSTSSTSTSNSKMVRSTLPSSAGSNETSINVPFSSSTESNTSTSSTSTSNSKTVRSTPFSSAGIIMTSLSQRNNKSASSYASSNSKCYNTADSCRKVHSTPSYLLTSSYTSEGVDYDCSLVSTKLKINDTNCVNNKHTTKSCLKTSVTTTIPTLEIKTARKSSSNTIGLHSYPTSSPNKSISSAPIIGYISSFKTIKTASPSYQTSDLTTITTITSLNNPGSTAVENTHESNDKSRKTSSNDISSKHSVIKETKDAVESSNKSHQTNTLKCSSIIIASSSHNSYESLGGTTLTLTLSKVYSPQNNDTLPFLEISEVNPSRTVLPESSKMMQYLTSTEERNKTARNTIATNIVSISTFHFEGEGNAIRMGYTQLLLMLIGIIVMNIGT
# What was measured:
# Test in all cases: glycan array binding signal (z-score within array); higher = stronger binding
# Settings in all cases: glycan notation: IUPAC condensed, linker removed; mutation: E227G
# [1] = target: Fuc(a1-2)Gal(b1-4)GlcNAc(b1-3)Gal(b1-4)GlcNAc(b1-2)Man(a1-3)[Fuc(a1-2)Gal(b1-4)GlcNAc(b1-3)Gal(b1-4)GlcNAc(b1-2)Man(a1-6)]Man(b1-4)GlcNAc(b1-4)GlcNAc
# Outline: (§1)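 The Consortium for Functional Glycomics database supplied 3228 glycan arrays, of which those lacking an available protein sequence were dropped. The binding signal, a within-array Z-score, was averaged across arrays of the same protein sequence and across linkers. Negative scores can be read as non-binding.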
# [2] = target: Fuc(a1-2)Gal(b1-4)GlcNAc(b1-3)Gal(b1-4)GlcNAc(b1-3)Gal(b1-4)GlcNAc
# Outline: as §1
# [3] = target: Fuc(a1-2)Gal(b1-4)GlcNAc(b1-3)GalNAc
# Outline: as §1
# [4] = target: Fuc(a1-2)Gal(b1-4)GlcNAc(b1-3)[Fuc(a1-2)Gal(b1-4)GlcNAc(b1-6)]GalNAc
# Outline: as §1
# [5] = target: Fuc(a1-2)Gal(b1-4)GlcNAc(b1-3)[Fuc(a1-3)[Gal(b1-4)]GlcNAc(b1-6)]Gal(b1-4)Glc
# Outline: as §1
# [6] = target: Fuc(a1-2)Gal(b1-4)GlcNAc(b1-6)GalNAc
# Outline: as §1
# [7] = target: Fuc(a1-2)Gal(b1-4)GlcNAc6S
# Outline: as §1
# [8] = target: Fuc(a1-2)Gal(b1-4)[Fuc(a1-3)]GlcNAc
# Outline: as §1
# [9] = target: Fuc(a1-2)Gal(b1-4)[Fuc(a1-3)]GlcNAc(b1-2)Man(a1-3)[Fuc(a1-2)Gal(b1-4)[Fuc(a1-3)]GlcNAc(b1-2)Man(a1-6)]Man(b1-4)GlcNAc(b1-4)[Fuc(a1-6)]GlcNAc
# Outline: as §1
# [10] = target: Fuc(a1-2)Gal(b1-4)[Fuc(a1-3)]GlcNAc(b1-2)[Fuc(a1-2)Gal(b1-4)[Fuc(a1-3)]GlcNAc(b1-4)]Man(a1-3)[Fuc(a1-2)Gal(b1-4)[Fuc(a1-3)]GlcNAc(b1-2)Man(a1-6)]Man(b1-4)GlcNAc(b1-4)GlcNAc
# Outline: as §1
# [11] = target: Fuc(a1-2)Gal(b1-4)[Fuc(a1-3)]GlcNAc(b1-3)Gal(b1-4)[Fuc(a1-3)]GlcNAc
# Outline: as §1
# [12] = target: Fuc(a1-2)Gal(b1-4)[Fuc(a1-3)]GlcNAc(b1-3)Gal(b1-4)[Fuc(a1-3)]GlcNAc(b1-3)Gal(b1-4)[Fuc(a1-3)]GlcNAc
# Outline: as §1
# [13] = target: Fuc(a1-2)Gal(b1-4)[Fuc(a1-3)]GlcNAc(b1-3)GalNAc
# Outline: as §1
# [14] = target: Fuc(a1-2)Gal(b1-4)[Fuc(a1-3)]GlcNAc(b1-3)[Neu5Ac(a2-6)Gal(b1-4)GlcNAc(b1-6)]Gal(b1-4)Glc
# Outline: as §1
# [15] = target: Fuc(a1-2)Gal3S(b1-4)GlcNAc
# Outline: as §1
# [16] = target: Fuc(a1-2)Gal6S(b1-3)GlcNAc
# Outline: as §1
# [17] = target: Fuc(a1-2)Gal6S(b1-3)GlcNAc6S
# Outline: as §1
# Fuc(a1-2)Gal6S(b1-4)Glc = target: Fuc(a1-2)Gal6S(b1-4)Glc
# Outline: as §1
# [18] = target: Fuc(a1-2)Gal6S(b1-4)Glc6S
# Outline: as §1
# Fuc(a1-2)[Gal(a1-3)]Gal = target: Fuc(a1-2)[Gal(a1-3)]Gal
# Outline: as §1
# [19] = target: Fuc(a1-2)[Gal(a1-3)]Gal(b1-3)GalNAc
# Outline: as §1
# [20] = target: Fuc(a1-2)[Gal(a1-3)]Gal(b1-3)GalNAc(b1-3)Gal(a1-4)Gal(b1-4)Glc
# Outline: as §1
# [21] = target: Fuc(a1-2)[Gal(a1-3)]Gal(b1-3)GlcNAc
# Outline: as §1
# [22] = target: Fuc(a1-2)[Gal(a1-3)]Gal(b1-3)GlcNAc(b1-2)Man(a1-3)[Fuc(a1-2)[Gal(a1-3)]Gal(b1-3)GlcNAc(b1-2)Man(a1-6)]Man(b1-4)GlcNAc(b1-4)GlcNAc
# Outline: as §1
# [23] = target: Fuc(a1-2)[Gal(a1-3)]Gal(b1-3)GlcNAc(b1-2)Man(a1-3)[Fuc(a1-2)[Gal(a1-3)]Gal(b1-3)GlcNAc(b1-2)Man(a1-6)]Man(b1-4)GlcNAc(b1-4)[Fuc(a1-6)]GlcNAc
# Outline: as §1
# [24] = target: Fuc(a1-2)[Gal(a1-3)]Gal(b1-3)GlcNAc(b1-3)GalNAc
# Outline: as §1
# [25] = target: Fuc(a1-2)[Gal(a1-3)]Gal(b1-3)GlcNAc(b1-6)GalNAc
# Outline: as §1
# [26] = target: Fuc(a1-2)[Gal(a1-3)]Gal(b1-4)Glc
# Outline: as §1
# [27] = target: Fuc(a1-2)[Gal(a1-3)]Gal(b1-4)GlcNAc
# Outline: as §1
# [28] = target: Fuc(a1-2)[Gal(a1-3)]Gal(b1-4)GlcNAc(b1-2)Man
# Outline: as §1
binder,measurement,setting,value
B1,glycan array binding signal (z-score),[1],-0.141
same,glycan array binding signal (z-score),[2],-0.178
same,glycan array binding signal (z-score),[3],-0.026
same,glycan array binding signal (z-score),[4],-0.236
same,glycan array binding signal (z-score),[5],-0.2
same,glycan array binding signal (z-score),[6],-0.259
same,glycan array binding signal (z-score),[7],0.533
same,glycan array binding signal (z-score),[8],-0.207
same,glycan array binding signal (z-score),[9],-0.014
same,glycan array binding signal (z-score),[10],-0.117
same,glycan array binding signal (z-score),[11],-0.253
same,glycan array binding signal (z-score),[12],-0.34
same,glycan array binding signal (z-score),[13],0.012
same,glycan array binding signal (z-score),[14],-0.129
same,glycan array binding signal (z-score),[15],-0.143
same,glycan array binding signal (z-score),[16],-0.206
same,glycan array binding signal (z-score),[17],-0.141
same,glycan array binding signal (z-score),Fuc(a1-2)Gal6S(b1-4)Glc,-0.15
same,glycan array binding signal (z-score),[18],-0.035
same,glycan array binding signal (z-score),Fuc(a1-2)[Gal(a1-3)]Gal,-0.147
same,glycan array binding signal (z-score),[19],-0.175
same,glycan array binding signal (z-score),[20],-0.092
same,glycan array binding signal (z-score),[21],-0.168
same,glycan array binding signal (z-score),[22],-0.086
same,glycan array binding signal (z-score),[23],0.101
same,glycan array binding signal (z-score),[24],-0.164
same,glycan array binding signal (z-score),[25],-0.212
same,glycan array binding signal (z-score),[26],0.031
same,glycan array binding signal (z-score),[27],-0.081
same,glycan array binding signal (z-score),[28],-0.2
